Assay results published in PubChem BioAssay (Tox21).
“And” between values parts separate entries of the source, which are not always exact repeats. Identical values can stand only once. The shares of active, inactive and inconclusive entries below differ from those in the screen. Potencies of inconclusive entries are doubtful fits and often do not repeat. A structure can be active in one record and inactive in another. The source made the active and inactive calls. Unless noted, calls come from the whole dose curve; as a rule, active = well fitted curve in the direction sought with a large enough effect in the repeat runs; inconclusive = weak or mixed curves; inactive = no such curve, though single readings can be large; an effect the other way counts as inactive or inconclusive.

Legend:
[1] = qHTS assay to identify small molecule antagonists of the peroxisome proliferator-activated receptor gamma (PPARg) signaling pathway - cell viability counter screen (AID 743194); conditions: PPARg-bla HEK293H viability, CellTiter-Glo luminescence, 17 h; Potency: co-treated with 50 nM rosiglitazone unless noted; activity change, negative = cytotoxicity: at 62.6 µM (top of the series), co-treated with 50 nM rosiglitazone unless noted; note: nearly all actives have a fitted effect of over 55% in size; for activity change, negative = cytotoxicity: % is set by controls: 0 for no effect and ±100 for the full control effect
Outline: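 PPARg-UAS-bla HEK293H cells were plated, rested 5 h at 37 C, then treated with compounds plus rosiglitazone (50 nM final) for 17 h at 37 C; viability was then read by CellTiter-Glo luminescence after 30 min at room temperature.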

[2] = qHTS assay for small molecule agonists of the antioxidant response element (ARE) signaling pathway (AID 743202; active = well fitted activation curve with a large enough effect in the signal ratio in the repeat runs, not every such curve was filed as active; inconclusive = weak or mixed curves, or effect the other way; inactive = no such curve, though single readings can be large or run the other way; the % refers to the signal ratio; for activation: % is set by controls: 0 for no effect and ±100 for the full control effect); conditions: HepG2 ARE-bla reporter, beta-lactamase FRET, 16 h; activation: at 73.3 µM (top of the series) unless noted
Outline: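 Steps: seed ARE-bla HepG2 cells (2,000/well); incubate 5 h at 37 C; add compounds by pin tool; incubate 16 h at 37 C; add FRET substrate; read fluorescence after 2 h at RT.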

[3] = molecular target: Bile acid receptor (Homo sapiens) (UniProt Q96RI1); experiment: qHTS assay to identify small molecule antagonists of the farnesoid-X-receptor (FXR) signaling pathway (AID 743217; active = well fitted inhibition curve with a large enough effect in the signal ratio in the repeat runs, not every such curve was filed as active; inconclusive = weak or mixed curves, or effect the other way; inactive = no such curve, though single readings can be large or run the other way; the % refers to the signal ratio; for activity change, negative = inhibition: % is set by controls: 0 for no effect and ±100 for the full control effect); conditions: HEK293T FXR-UAS-bla, beta-lactamase ratio, CDCA-stimulated, 16 h; activity change, negative = inhibition: at 62.6 µM (top of the series) unless noted
Outline: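 Screen of the Tox21 10K library in quantitative HTS format using FXR-UAS-bla HEK 293T reporter cells. Agonist chenodeoxycholic acid, 50 uM final, added with compounds; 16 h incubation at 37 °C; beta-lactamase FRET fluorescence measured.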

[4] = qHTS assay for small molecule activators of the heat shock response signaling pathway - cell viability counter screen (AID 743209); conditions: HSE-bla HeLa viability, CellTiter-Glo luminescence, 5 h; activity change, negative = cytotoxicity: at 62.6 µM (top of the series) unless noted; note: nearly all actives have a fitted effect of over 50% in size
Outline: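 Viability of HSE-bla HeLa cells is measured with CellTiter-Glo in the wells already used for the reporter read. Compound exposure lasts 5 h at 37 C, and luminescence is read after 30 min at room temperature.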

[5] = qHTS assay for small molecule activators of the heat shock response signaling pathway (AID 743210; active = well fitted activation curve with a large enough effect in the signal ratio in the repeat runs, with a control signal flat, not every such curve was filed as active; inconclusive = weak or mixed curves; the % refers to the signal ratio); conditions: HeLa HSE-bla reporter, beta-lactamase ratio, 5 h; activation: at 62.6 µM (top of the series) unless noted
Outline: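 Activation of heat shock element-controlled beta-lactamase expression is measured in HeLa cells by LiveBLAzer FRET fluorescence, with compound exposure lasting 5 h at 37 C and substrate loading 2.5 h at room temperature.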

[6] = qHTS assay to identify small molecule agonists of the peroxisome proliferator-activated receptor delta (PPARd) signaling pathway - cell viability counter screen (AID 743211); conditions: PPARd-bla HEK293H viability, CellTiter-Glo luminescence, 17 h; activity change, negative = cytotoxicity: at 62.6 µM (top of the series); note: nearly all actives have a fitted effect of over 55% in size
Outline: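 Read-out: CellTiter-Glo luminescence, 30 min RT, measured in the same wells as the beta-lactamase reporter. Cells: GeneBLAzer PPAR delta UAS-bla HEK293H, 3000 cells/well, compound exposure 17 h at 37C.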

[7] = molecular target: Peroxisome proliferator-activated receptor delta (Homo sapiens) (UniProt Q03181); experiment: qHTS assay to identify small molecule agonists of the peroxisome proliferator-activated receptor delta (PPARd) signaling pathway (AID 743212; calls by dose curve; for activation: % is set by controls: 0 for no effect and ±100 for the full control effect); conditions: HEK293H PPARd-UAS-bla, beta-lactamase FRET ratio, 17 h; activation: at 62.6 µM (top of the series) unless noted
Outline: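 Cells expressing a UAS-driven beta-lactamase reporter (PPARd-bla HEK293H) were given test compounds after a 5 h settle and kept at 37 C. Reporter activity was then measured as FRET fluorescence using LiveBLAzer B/G substrate.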

[8] = qHTS assay to identify small molecule antagonists of the peroxisome proliferator-activated receptor delta (PPARd) signaling pathway - cell viability counter screen (AID 743213); conditions: PPARd-bla HEK293H viability, CellTiter-Glo luminescence, 17 h; viability change, negative = cytotoxic: at 62 µM (top of the series) unless noted; note: nearly all actives have a fitted effect of over 50% in size
Outline: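 HEK293H cells with the PPARd UAS-bla reporter, co-treated 17 h at 37 C with compounds and L165041 (300 nM final), were lysed with CellTiter-Glo. Luminescence indicated viable cell content.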

[9] = qHTS assay for small molecule agonists of the antioxidant response element (ARE) signaling pathway - cell viability counter screen (AID 743203; calls by dose curve; note: nearly all actives have a fitted effect of over 55% in size); conditions: ARE-bla HepG2 viability, CellTiter-Glo luminescence, 16 h; viability change, negative = cytotoxic: at 73.3 µM (top of the series)
Outline: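 Viability counter screen: stably transfected ARE-bla HepG2 line, 16 hrs compound exposure at 37C/5% CO2, ATP-based CellTiter-Glo luminescence measured in the reporter wells.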

[10] = molecular target: Peroxisome proliferator-activated receptor delta (Homo sapiens) (UniProt Q03181); experiment: qHTS assay to identify small molecule antagonists of the peroxisome proliferator-activated receptor delta (PPARd) signaling pathway (AID 743215; active = well fitted inhibition curve with a large enough effect in the signal ratio in the repeat runs, not every such curve was filed as active; inconclusive = weak or mixed curves, or effect the other way; inactive = no such curve, though single readings can be large or run the other way; the % refers to the signal ratio;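 note: cells stimulated with agonist L165041 at 300 nM final during compound exposure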); conditions: HEK293H PPARd-UAS-bla, beta-lactamase FRET ratio, antagonist, 17 h
Outline: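 Plated HEK293H PPARd-bla cells rested 5 h at 37 C and 5% CO2. Compound, then agonist L165041 at 300 nM final, was added; 17 h at 37 C followed. Substrate loading, 2 h room temperature, fluorescence measured.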

[11] = ratio activity, negative = inhibition: at 62 µM (top of the series) unless noted
Potency is the fitted concentration of half-maximal effect; tags give direction and shape of the fitted curve or compound fluorescence and quenching.

Chain of UniProt Q03181 (Q03181 whole entry, looked up): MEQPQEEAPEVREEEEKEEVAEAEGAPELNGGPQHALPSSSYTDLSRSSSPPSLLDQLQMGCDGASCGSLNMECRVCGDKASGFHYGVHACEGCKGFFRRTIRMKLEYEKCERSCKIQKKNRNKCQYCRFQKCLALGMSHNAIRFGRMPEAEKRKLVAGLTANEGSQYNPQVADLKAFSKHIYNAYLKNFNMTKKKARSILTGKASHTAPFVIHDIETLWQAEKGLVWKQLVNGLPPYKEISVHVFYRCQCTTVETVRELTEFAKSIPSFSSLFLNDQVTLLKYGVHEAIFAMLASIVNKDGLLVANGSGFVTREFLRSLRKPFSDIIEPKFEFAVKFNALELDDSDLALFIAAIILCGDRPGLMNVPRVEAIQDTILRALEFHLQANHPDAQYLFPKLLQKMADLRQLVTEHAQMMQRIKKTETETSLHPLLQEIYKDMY
Chain of UniProt Q96RI1 (Q96RI1 whole entry, looked up): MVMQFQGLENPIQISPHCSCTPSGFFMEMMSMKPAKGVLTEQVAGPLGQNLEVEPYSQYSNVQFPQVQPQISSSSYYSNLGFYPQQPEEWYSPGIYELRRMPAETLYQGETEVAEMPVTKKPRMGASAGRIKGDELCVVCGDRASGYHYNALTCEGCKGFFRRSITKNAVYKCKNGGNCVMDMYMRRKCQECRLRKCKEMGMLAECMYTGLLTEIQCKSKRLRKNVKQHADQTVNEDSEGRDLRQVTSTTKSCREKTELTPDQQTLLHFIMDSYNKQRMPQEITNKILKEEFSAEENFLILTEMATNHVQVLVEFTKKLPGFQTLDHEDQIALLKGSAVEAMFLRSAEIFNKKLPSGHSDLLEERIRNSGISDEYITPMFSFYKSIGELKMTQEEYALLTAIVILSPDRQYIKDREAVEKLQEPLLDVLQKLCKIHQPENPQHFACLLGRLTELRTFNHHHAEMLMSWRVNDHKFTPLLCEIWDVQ

SMILES: CCN(C(C)=O)c1cccc(-c2ccnc3c(C#N)cnn23)c1
- Potency [1]: inactive
- Potency [2]: inactive
- activity change, negative = inhibition [3]: inconclusive: 0.703%

SMILES: CN(C)C(=S)SSC(=S)N(C)C
- Potency [1]: inconclusive: 54.9 µM [cytotoxic, partial curve, poor fit]
- Potency [4]: inconclusive: 27.2 nM [cytotoxic, full curve, poor fit] and inconclusive: 106 nM [cytotoxic, single point]
- Potency [5]: inconclusive: 60.8 nM and inconclusive: 36 nM and inconclusive: 139 nM
- Potency [6]: active: 76.5 nM and active: 38.9 nM and active: 188 nM
- activation [7]: inconclusive: 2.96%
- Potency [8]: active: 108 nM and active: 30.9 nM and active: 298 nM

SMILES: O=[N+]([O-])/C=C/c1ccccc1
- Potency [1]: active: 31.4 µM and active: 24.5 µM
- Potency [4]: inconclusive: 55.8 µM [cytotoxic, single point]
- Potency [5]: inconclusive: 49.8 µM and inconclusive: 10.2 µM
- Potency [6]: active: 14 µM and active: 17.4 µM
- Potency [8]: active: 44.4 µM and inconclusive: 54.9 µM [cytotoxic, single point]

SMILES: C[C@H]1CCCC(=O)CCC/C=C/c2cc(O)cc(O)c2C(=O)O1
- Potency [1]: inconclusive: 9.42 µM [cytotoxic, full curve, poor fit] and inconclusive: 14.3 µM [cytotoxic, partial curve, poor fit]
- Potency [9]: inconclusive: 52.5 µM [cytotoxic, partial curve]
- Potency [4]: inconclusive: 33.4 µM [cytotoxic, partial curve, poor fit] and inconclusive: 7.15 µM [cytotoxic, partial curve, poor fit]
- Potency [5]: active: 12.7 µM
- Potency [6]: inconclusive: 53 µM [cytotoxic] and inactive
- Potency [7]: inconclusive: 37.5 µM [rising, partial curve]
- Potency [8]: inconclusive: 10.6 µM [rising, full curve, poor fit]
- ratio activity, negative = inhibition ([10]; at 28.9 µM (top of the series)): inconclusive: -29%
- ratio activity, negative = inhibition ([10]; at 62 µM (top of the series)): inconclusive: -69.7%

SMILES: CCCCCC[n+]1ccccc1
- Potency [1]: inactive
- Potency [4]: inconclusive: 55.5 µM [cytotoxic, single point] and inconclusive: 55.3 µM [cytotoxic, single point]
- Potency [5]: inconclusive: 41.6 µM and inconclusive: 34.9 µM
- Potency [6]: active: 55.5 µM and active: 55.3 µM

SMILES: O=C(O)CC[N+](=O)[O-]
- Potency [1]: inconclusive: 4.5 µM [cytotoxic, full curve, poor fit]
- Potency [4]: inconclusive: 56.7 µM [cytotoxic, single point]
- Potency [5]: inconclusive: 56.7 µM [activator]
- Potency [8]: inconclusive: 1.13 µM [cytotoxic, single point]

SMILES: C[CH2][Hg][S]c1ccccc1C(=O)O
- Potency [1]: active: 2.45 µM and active: 8.41 µM
- Potency [4]: active: 19.5 µM and active: 15 µM
- Potency [8]: active: 2.19 µM and active: 1.68 µM

SMILES: CCCCCCCCc1ccc(O)cc1
- Potency [1]: inconclusive: 55.3 µM [cytotoxic]
- Potency [9]: inconclusive: 1.54 µM [cytotoxic, full curve, poor fit]
- Potency [5]: inconclusive: 40.5 µM
- Potency [6]: inconclusive: 8.76 µM [cytotoxic, full curve, poor fit]
- Potency [8]: inconclusive: 69 µM [cytotoxic]

SMILES: O=C(Nc1ccc(Br)cc1)c1cc(Br)cc(Br)c1O
- Potency [1]: active: 488 nM and active: 245 nM and active: 3.76 µM
- Potency [4]: inconclusive: 614 nM [cytotoxic, full curve] and inconclusive: 347 nM [cytotoxic, full curve] and inconclusive: 2.98 µM [cytotoxic, full curve]
- Potency [5]: inconclusive: 4.7 µM and inconclusive: 2.75 µM [partial curve] and inconclusive: 4.92 µM
- Potency [6]: active: 6.14 µM and active: 2.45 µM and active: 8.41 µM
- Potency [8]: inconclusive: 388 nM [cytotoxic, full curve, poor fit] and active: 1.55 µM and inconclusive: 21.1 µM [cytotoxic, partial curve, poor fit]

SMILES: CCc1nn(C)c(C(=O)NCc2ccc(C(C)(C)C)cc2)c1Cl
- Potency [1]: inconclusive: 38.9 µM [cytotoxic, partial curve, poor fit]
- Potency [9]: active: 24.3 µM
- Potency [4]: active: 54.9 µM
- Potency [5]: inconclusive: 54.9 µM
- Potency [6]: active: 38.9 µM
- Potency [10, 11]: inconclusive: 19.5 µM [rising, partial curve]
- Potency [3]: inconclusive: 54.9 µM

SMILES: O=C(Nc1ccccc1)Nc1ccnc(Cl)c1
- Potency [1]: inconclusive: 21.9 µM [cytotoxic, partial curve, poor fit]
- Potency [2]: inconclusive: 6.86 µM [rising, partial curve]
- ratio activity, negative = inhibition [10, 11]: inconclusive: -42.3%
- activity change, negative = inhibition [3]: inconclusive: -21%
